# Laboratory results: PubChem BioAssay AID2147 (National Center for Advancing Translational Sciences (NCATS), 2009)
# Hit rate of the full screen: of about 230,000 compounds, about 3,600 (1.6%) were called active. This list was built around the results that the source calls inconclusive (neither active nor inactive); the mix of calls is not that of the screen. The call rests on the fitted dose curve; in most records, active means well fitted inhibition curve with a large enough effect (not every such curve was filed as active); inconclusive means small, poorly fitted or top-dose-only effect, or another doubt; inactive means no such curve, though single readings can be large or run the other way. A potency beside an inconclusive call is a rough fit, not a confirmed value.
# Target: Lysine-specific demethylase 4E (Homo sapiens) (UniProt B2RXH2)
# Experiment: qHTS Assay for Inhibitors of Human Jumonji Domain Containing 2E (JMJD2E)
# Details: JMJD2E catalytic domain, FDH-coupled NADH fluorescence (FDH is formaldehyde dehydrogenase); series mostly up to 57.1 µM
# Further: nearly all actives have a fitted effect of over 50% in size.
# Potency means the concentration at half of the fitted maximal effect; tags describe the fitted curve by direction and shape.
# UniProt B2RXH2, sequence (B2RXH2 whole entry, looked up, the tested form may be a part): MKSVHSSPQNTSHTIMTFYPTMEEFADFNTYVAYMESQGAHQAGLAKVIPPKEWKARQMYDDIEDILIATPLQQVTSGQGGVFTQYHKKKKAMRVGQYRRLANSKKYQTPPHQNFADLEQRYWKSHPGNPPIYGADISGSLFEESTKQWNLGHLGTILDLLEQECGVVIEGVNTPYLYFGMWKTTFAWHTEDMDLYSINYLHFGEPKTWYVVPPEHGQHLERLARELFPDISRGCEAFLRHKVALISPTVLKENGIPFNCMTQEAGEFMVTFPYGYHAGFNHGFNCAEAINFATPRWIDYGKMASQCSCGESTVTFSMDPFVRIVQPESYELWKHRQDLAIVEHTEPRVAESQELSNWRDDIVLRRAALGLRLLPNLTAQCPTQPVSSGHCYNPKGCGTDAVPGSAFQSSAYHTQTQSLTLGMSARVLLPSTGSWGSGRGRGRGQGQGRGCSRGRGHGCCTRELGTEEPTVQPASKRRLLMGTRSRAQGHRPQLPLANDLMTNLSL
row,SMILES,Potency
1,S=c1[nH]c(-c2ccccc2)cn1/N=C/c1cccc2ccccc12,"inconclusive: 35.5 µM [inhibitor, single point]"
2,CCNC(=S)N/N=C/c1ccc(C(=O)O)cc1,"inconclusive: 7.08 µM [inhibitor, single point]"
3,Cc1nc(NC(=O)c2ccco2)sc1-c1csc(Nc2ccc(Cl)cc2Cl)n1,"inconclusive: 35.5 µM [inhibitor, single point]"
4,CCc1ccccc1NC(=O)CC(O)(C(=O)OC)C(F)(F)F (stereo not drawn),inactive
5,CN(C)CCN=Cc1c(O)n(Cc2ccc3c(c2)OCO3)c(=O)c2ccccc12,"inconclusive: 28.2 µM [inhibitor, partial curve]"
6,COC(=O)c1cc(C(=O)c2cc(Cl)ccc2O)coc1=N,"inconclusive: 25.1 µM [inhibitor, single point]"
7,CCN(CC)c1ccc(/C=c2\sc3nnc(-c4ccccc4Cl)n3c2=O)cc1,inactive
8,O=C(Nc1ccc(N2CCCCC2)cc1)c1ccc2c(c1)OCCO2,inactive
9,CCOc1ccc(C(=O)Nc2ccccc2-c2ccccc2)cc1Cl,"inconclusive: 39.8 µM [inhibitor, single point]"
10,O=Cc1ccc(B(O)O)cc1,"inconclusive: 39.8 µM [inhibitor, single point]"
11,Cc1cc(C)nc(SCc2cn3cc(Cl)ccc3n2)n1,"inconclusive: 0.891 µM [inhibitor, full curve]"
12,Cc1cc(N2CCOCC2)nc2ccc(NC(=S)NCc3ccc4c(c3)OCO4)cc12,"inconclusive: 39.8 µM [inhibitor, single point]"
13,NC(=O)CSc1nnc(-c2cc(-c3ccc(Cl)cc3)nc3ccccc23)o1,"inconclusive: 8.91 µM [inhibitor, single point]"
14,Clc1ccc(-c2nnc3ccccn23)cc1,"inconclusive: 25.1 µM [inhibitor, single point]"
15,COc1ccc(N(C(=O)/C=C/c2ccccc2)C2=CC3CCC(C2)N3C)cc1 (stereo not drawn),"inconclusive: 35.5 µM [inhibitor, single point]"
16,COCCn1nnnc1CN(Cc1cc2cc(OC)c(OC)cc2[nH]c1=O)C1CCCC1,"inconclusive: 22.4 µM [inhibitor, partial curve]"
17,CCOc1ccc(S(=O)(=O)NCc2ccc(F)cc2)c2cccnc12,"inconclusive: 31.6 µM [inhibitor, partial curve]"
18,Nc1nc(SCC(=O)Nc2cc(S(=O)(=O)N3CCOCC3)ccc2Cl)n[nH]1,inactive
19,CC(C)CCOCC(=O)Nc1cccc(C(=O)O)c1,"inconclusive: 39.8 µM [inhibitor, single point]"
20,CCC(C)[C@H](NC(=O)OC(C)(C)C)C(=O)N/N=C/c1ccc2cc(OC)ccc2n1 (stereo partly drawn),"inconclusive: 35.5 µM [inhibitor, partial curve]"
21,COc1cc2c(cc1NC(=O)c1cc(-c3ccncc3)nc3ccc(C)cc13)oc1ccccc12,"inconclusive: 25.1 µM [inhibitor, single point]"
22,COc1cccc(Nc2nc(-c3ccc(O)cc3)cs2)c1,inactive
23,CCCCN=C1NN=C(c2ccc(C)c(C)c2)CS1,"inconclusive: 17.8 µM [inhibitor, partial curve]"
24,O=C1NC(c2ccncc2)Nc2sc3c(c21)CCCC3 (stereo not drawn),"inconclusive: 31.6 µM [inhibitor, partial curve]"
25,COCCN(CCOC)S(=O)(=O)c1ccc(C(=O)Nc2nc(-c3ccccc3)c(C(=O)c3ccccc3)s2)cc1,"inconclusive: 25.1 µM [inhibitor, single point]"

row,SMILES,Potency
1,CC(=O)c1cc2c(cc1NC(=O)c1ccco1)OCCO2,"inconclusive: 28.2 µM [inhibitor, partial curve]"
2,CC1(C)CC(NC(=O)c2ccncc2)CC(C)(C)N1O,"inconclusive: 31.6 µM [inhibitor, single point]"
3,CCC(=O)n1nc(-c2cccnc2)nc1NCc1ccccc1,inactive
4,Cc1cc(C)c2cc(CN(CCCN(C)C)C(=S)NCc3ccccc3)c(=O)[nH]c2c1,"inconclusive: 39.8 µM [inhibitor, single point]"
5,O=C(CN1CCN(c2ccccn2)CC1)NC1CCCC1,inactive
6,COc1ccc(NC(=O)c2ccc(Cl)c(NC(=O)c3ccncc3)c2)cc1,"inconclusive: 39.8 µM [inhibitor, single point]"
7,Cc1ccc2nc(NC(=O)CSc3nnc(C)c(=O)n3N)sc2c1,inactive
8,BrC(=C\c1ccccc1)/C=N/Nc1nc(N2CCOCC2)nc(N2CCOCC2)n1,inactive
9,CCOC(=O)c1c[nH]c2c(C(F)(F)F)cccc2c1=O,"inconclusive: 25.1 µM [inhibitor, single point]"
10,CC(=O)NC1=NN(C(C)=O)C2(S1)C(=O)N(CC(C)C)c1ccc(C)cc12 (stereo not drawn),inactive
11,COc1ccc(-c2ccc(CO)o2)cc1N,inactive
12,CC(=O)c1c(O)c(C)c(-c2ccccc2)n(-c2ccccc2)c1=O,"inconclusive: 39.8 µM [inhibitor, single point]"
13,Cc1cc(=O)oc2cc(OCC(=O)OCC(=O)N3CCC(C)CC3)ccc12,"inconclusive: 31.6 µM [inhibitor, partial curve]"
14,O=C(c1ccco1)N1CCN(C(=O)c2cc3c(s2)-c2ccccc2OC3)CC1,"inconclusive: 28.2 µM [inhibitor, partial curve]"
15,Cc1ccc(-c2nnc3c(C(F)(F)F)nc4ccccc4n23)cc1,"inconclusive: 31.6 µM [inhibitor, partial curve]"
16,COCCn1c(SCC(=O)Nc2cc(OC)ccc2OC)nc2c(c1=O)SC(C)C2 (stereo not drawn),inactive
17,COc1cccc(NC(=O)C(NCC(C)(C)CN(C)C)c2ccccc2)c1 (stereo not drawn),"inconclusive: 35.5 µM [inhibitor, single point]"
18,COc1ccc2c(c1)C(=O)[C@@H](OC(=O)NCCc1ccc(OC)c(OC)c1)[C@H](c1ccc(OC)c(Br)c1)O2,inactive
19,COCCCNCCOCCOc1ccc(C)cc1[N+](=O)[O-],"inconclusive: 28.2 µM [inhibitor, single point]"
20,COc1ccccc1CN(Cc1cc2cc3c(cc2[nH]c1=O)OCCO3)Cc1nnnn1Cc1ccco1,"inconclusive: 35.5 µM [inhibitor, single point]"
21,CS(=O)(=O)Oc1ccc2c(c1)O/C(=C\c1cccnc1)C2=O,"inconclusive: 28.2 µM [inhibitor, single point]"
22,O=c1oc2ccccc2c(O)c1Cc1cc(Cl)c2cccnc2c1O,active: 5.01 µM
23,N#Cc1c(/N=C/c2cc3ccccc3s2)sc2c1CCC2,"inconclusive: 35.5 µM [inhibitor, single point]"
24,CC(=O)Oc1ccc2c(C)c(CC(C)O)c(=O)oc2c1 (stereo not drawn),"inconclusive: 28.2 µM [inhibitor, partial curve]"
25,COc1ccccc1CNc1ncncc1-c1ccc(N(C)C)cc1,"inconclusive: 35.5 µM [inhibitor, partial curve]"

row,SMILES,Potency
1,CC1CCCC/C1=N\NC(=S)Nc1cccnc1 (stereo not drawn),"inconclusive: 25.1 µM [inhibitor, partial curve]"
2,CCOC(=O)N1CCN(S(=O)(=O)c2ccc(C(=O)Nc3ccc4c(c3)C(=O)NC4=O)cc2)CC1,"inconclusive: 35.5 µM [inhibitor, single point]"
3,Cn1c(CN2CCCCC2)nc2cc([N+](=O)[O-])ccc21,inactive
4,O=C(NNC(=S)NC(=O)c1ccco1)c1ccc(F)cc1,"inconclusive: 39.8 µM [inhibitor, single point]"
5,CCCC(=O)Nc1nnc(-c2ccc3c(c2)OCCO3)o1,"inconclusive: 39.8 µM [inhibitor, single point]"
6,CC(=O)C1(C)CC2(CC(C)(C)OC2=O)C(=O)O1 (stereo not drawn),inactive
7,COc1ccc2c(c1)C(=O)[C@H](OC(=O)Nc1ccc(OC(F)F)cc1)[C@@H](c1ccc(OC)c(Br)c1)O2,"inconclusive: 31.6 µM [inhibitor, partial curve]"
8,Cc1cn(-c2cc(C(=O)Nc3ccc(C)c(NC(=O)N4CCNC4=O)c3)cc(C(F)(F)F)c2)cn1,"inconclusive: 35.5 µM [inhibitor, single point]"
9,C=CCN1C(=O)/C(=C2/Sc3ccc(OC)cc3N2C)SC1=NCc1ccccc1,inactive
10,COc1cc(/C=N/Nc2nc(C)cc(C)n2)ccc1OC(=O)c1ccco1,inactive
11,CC(=O)N1CCc2cc(C(=O)CN3CCC(C)CC3)ccc21,inactive
12,CCCCN(CCCC)S(=O)(=O)c1ccc(NC(=O)c2ccc([N+](=O)[O-])cc2Cl)cc1,inactive
13,COc1ccc(N2CC(=O)N(c3ccccc3)C2=S)cc1,inactive
14,COc1ccccc1NC(=O)Cn1cnc2sc(C)c(S(=O)(=O)N3CCCCC3)c2c1=O,inactive
15,NC1(C(=O)O)CCCCC1,inactive
16,O=C(CN1CCN(c2ccccc2)CC1)N1CCc2[nH]c3ccccc3c2C1,inactive
17,O=C(NCC1CCCO1)c1ccc(CS(=O)(=O)c2c(Cl)cccc2Cl)o1 (stereo not drawn),inactive
18,CCCC(=O)N1CCN(c2ccc(NC(=O)c3cc4ccccc4o3)cc2)CC1,inactive
19,CCC(=O)n1nc(-c2ccco2)nc1SCc1ccccc1,inactive
20,CC1(C)CC(=O)C2=C(C1)OC(N)=C([N+](=O)[O-])C2c1ccc(C#N)s1 (stereo not drawn),inactive
21,CCOc1cc(C(=O)Nc2c(C)ccc3nsnc23)cc(OCC)c1OCC,"inconclusive: 25.1 µM [inhibitor, partial curve]"
22,O=C(COc1ccc([N+](=O)[O-])cc1)NC(C(=O)O)C(O)c1cccc([N+](=O)[O-])c1 (stereo not drawn),inactive
23,O=C(CSc1nnc(-c2ccc(S(=O)(=O)N3CCOCC3)cc2)o1)c1ccccc1F,inactive
